The campaign covered roughly 110,000 compounds. About 230 (0.21%) showed an effect of 50% or more. Some of the results follow.
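Further: 30 min substrate incubation versus DMSO and 10 µM JCP410 controls.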

DPAP1, sequence (Q8IIJ9 whole entry, looked up): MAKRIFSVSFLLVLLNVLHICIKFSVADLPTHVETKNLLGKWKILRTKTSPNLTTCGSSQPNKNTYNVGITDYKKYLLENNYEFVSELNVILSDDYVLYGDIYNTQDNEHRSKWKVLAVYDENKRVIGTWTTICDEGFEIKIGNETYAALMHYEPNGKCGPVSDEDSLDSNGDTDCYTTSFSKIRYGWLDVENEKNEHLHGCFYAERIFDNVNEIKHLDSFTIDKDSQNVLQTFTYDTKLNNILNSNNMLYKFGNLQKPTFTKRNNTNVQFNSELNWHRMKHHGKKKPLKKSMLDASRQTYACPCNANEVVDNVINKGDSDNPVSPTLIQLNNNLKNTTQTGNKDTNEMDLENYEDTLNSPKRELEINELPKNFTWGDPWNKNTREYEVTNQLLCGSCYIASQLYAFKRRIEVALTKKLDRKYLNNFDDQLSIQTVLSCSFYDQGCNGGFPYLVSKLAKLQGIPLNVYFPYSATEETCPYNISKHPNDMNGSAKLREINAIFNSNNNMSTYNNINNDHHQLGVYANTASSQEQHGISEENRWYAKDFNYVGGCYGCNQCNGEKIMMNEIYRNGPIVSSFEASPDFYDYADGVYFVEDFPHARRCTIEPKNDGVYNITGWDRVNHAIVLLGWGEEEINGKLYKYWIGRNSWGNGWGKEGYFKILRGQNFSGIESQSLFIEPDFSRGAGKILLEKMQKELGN

This experiment concerns the target DPAP1 (Plasmodium falciparum, UniProt Q8IIJ9). The experiment can be described thus: primary screen, percent inhibition; read by cleavage of a fluorogenic dipeptide substrate; higher = more effect of the substance. Details: species or system P. falciparum D10 trophozoite lysates; single well.
Regarding `Cc1ccc(C(=O)N2CCN(c3ccc(F)cc3)CC2)o1`, the “% Inhibition @ 10 uM” value was -1.42%. Take `CC1CCN(c2ccc3nnc(CCC(=O)N4CCCC4)n3n2)CC1`: the “% Inhibition @ 10 uM” value is on record as -1.68%. Then `Cc1nnc2c(N3CCCC3)nc3ccccc3n12`, with -0.788%; and `C=C(C)Cn1c(CCNC(=O)c2ccccc2)nc2ccccc21`, with -2.74%; and `CCc1ccc(NC(=O)c2nn(C)c(C)c2Br)cc1`, with 7.35%. `Nc1ccc(Cl)c(C(=O)Nc2ccccc2C(=O)O)c1`: the “% Inhibition @ 10 uM” value was -4.72%.

For the compound `COc1ccc(/C=C2\C(=N)N3N=C(N4CCC(C)CC4)SC3=NC2=O)cc1OC`, the “% Inhibition @ 10 uM” value is on record as -3.44%. Then `CS/C(=C\C(=O)c1ccco1)C(C)C(=O)c1ccco1` (stereo not shown), with 0.583%; and `COc1cc(/C=C2/C(=N)N3C(SCC(C)C)=NSC3=NC2=O)ccc1OCC(=O)O`, with 6.2%; and `CCOc1ccc(-c2noc(-c3ccco3)n2)cc1OCC`, with -2.92%. Then `CCN(CC)Cc1c(O)ccc2oc(C)c(C(=O)NC3CCCC3)c12`, with 0.276%; and `Cc1nc2ccccc2n1C(=O)c1cccs1`, with -3.48%. Then `Cc1cc(C)c(S(=O)(=O)NCc2nc(N)n(S(=O)(=O)c3c(C)cc(C)cc3C)n2)c(C)c1`, with -0.659%. Regarding `Cc1nc2cc(NC(=O)NC3CC3)ccc2n1C`, the “% Inhibition @ 10 uM” value is listed as -13%.

On to `O=C(NC1CCCCC1)C1c2ccccc2C(=O)N1Cc1ccc2c(c1)OCO2` (stereo not shown), for which the “% Inhibition @ 10 uM” value stood at 1.16%. In the case of `COc1ccccc1Cn1c(O)nc2cccnc21`, the “% Inhibition @ 10 uM” value was -2.83%. `O=C(NCc1cccnc1)Nc1ccc(NC(=O)NCc2cccnc2)cc1`: the “% Inhibition @ 10 uM” value is recorded as 3.53%.

Take `CC(CNC(=O)CCCn1c2ccccc2c2cnnc(O)c21)c1ccccc1` (stereo not shown): the “% Inhibition @ 10 uM” value is reported as -5.63%. Turning to `C/C(=C(\NC(=O)c1ccccc1)C(=O)O)c1ccc(C)cc1`, the “% Inhibition @ 10 uM” value is on record as -2.84%.

As for `Cn1ncc(C(=O)N2CCN(Cc3ccccc3)CC2)c1C1CCN(C(=O)OC(C)(C)C)CC1`, the “% Inhibition @ 10 uM” value is -7.36%.

As for `Cc1ccc(CS(=O)Cc2ccc(C(=O)NC3CCCc4ccccc43)o2)cc1` (stereo not shown), the “% Inhibition @ 10 uM” value is -3.53%.

Turning to `COc1cc(-c2cc(-c3ccccc3)nc(SCC(=O)O)c2C#N)cc(OC)c1OC`, the “% Inhibition @ 10 uM” value was 17%. `CCCN(C(=O)Cc1ccccc1)c1nc(-c2ccccc2)cs1`: the “% Inhibition @ 10 uM” value is -0.704%. Then `CCOc1ccccc1N1C(=O)c2ccc(C(=O)NCC(C)C)cc2C1=O`, with -4.7%; and `COc1ccccc1CNc1nc2c(S(=O)(=O)c3cc(C)ccc3C)nnn2c2ccsc12`, with -4.34%. As to `Nc1nc(-c2cccc([N+](=O)[O-])c2)nc2c1c(=O)oc1ccccc12`, the “% Inhibition @ 10 uM” value is given as 3.25%.

Consider `Cc1ccc(C2=NN(CC(=O)N3CCCCC3)C(=O)CC2)cc1`, for which the “% Inhibition @ 10 uM” value turned out to be 2.18%. For the compound `O=C(NC1CCCCCC1)C1CCN(S(=O)(=O)c2c[nH]cn2)CC1`, the “% Inhibition @ 10 uM” value is on record as 2.9%. `COc1ccc2nc(NC(=O)CSCCc3ccccn3)sc2c1`: the “% Inhibition @ 10 uM” value is listed as 3.47%.

As to `O=C(O)C1C2C=CC(O2)C1C(=O)NCCCn1ccnc1` (stereo not shown), the “% Inhibition @ 10 uM” value was -2.22%. Then `CCC(C)NC(=O)C1CCC(=O)N1Cc1ccc(C)cc1` (stereo not shown), with -0.0542%. Then `CSC1=C(C#N)C(c2cccs2)C(C(=O)Nc2ccccc2C)=C(C)N1` (stereo not shown), with 2.76%; and `CC(C)CCNCc1c(C(=O)O)n(Cc2ccccc2)c2ccccc12`, with 0.277%; and `O=C(O)C1CCCCC1C(=O)Nc1cccc2ccccc12` (stereo not shown), with -0.305%.

Regarding `COc1cccc(NC(=O)C2CC(=O)N(c3ccc(Cl)cc3)C2)c1` (stereo not shown), the “% Inhibition @ 10 uM” value came out at 3.9%. `CCCN(CCC)CCNC(=O)c1cn(C)c(=O)c2cc(OC)c(OC)cc12`: the “% Inhibition @ 10 uM” value is -2.49%. Then `CN(C)CCCN(C(=O)c1cccc(C(F)(F)F)c1)c1nc2c(F)cccc2s1`, with 2.01%; and `NC(=O)c1c(NC(=O)c2cc(Br)ccc2Cl)sc2c1CCC2`, with 7%. Then `CCOc1ccccc1CNC(=O)Cn1nc(C)c2sc3ccccc3c2c1=O`, with -5.44%. As for `Cc1sc2ncnc(SCc3ccc(F)cc3)c2c1C`, the “% Inhibition @ 10 uM” value is 2.56%. For `COc1ccccc1C(=O)/C=C(\O)C(=O)Nc1sc2c(c1C#N)CCC2`, the “% Inhibition @ 10 uM” value is 0.738%.

Regarding `CC1CCN(c2nc(Cc3ccc(Cl)cc3Cl)nc3c2nnn3C)CC1`, the “% Inhibition @ 10 uM” value is 0.0367%.

On to `O=C(NCCNC(=O)C(F)(F)F)c1ccncc1`, for which the “% Inhibition @ 10 uM” value is on record as -5.38%. In the case of `COc1ccc(OC)c(NC(=O)CCCN2C(=O)c3ccccc3C2=O)c1`, the “% Inhibition @ 10 uM” value is -5.46%.

Consider `CCO/C=N/C1=C(C#N)C(c2ccccc2)C2=C(CC(C)(C)CC2=O)O1` (stereo not shown), for which the “% Inhibition @ 10 uM” value is -0.233%. Then `CCS(=O)(=O)C1=NSC2=NC(=O)/C(=C\c3ccc(OCCOc4ccccc4)cc3)C(=N)N21`, with -1.58%. Then `CS(=O)(=O)N1CCCC(C(=O)NCc2ccco2)C1` (stereo not shown), with 5.35%; and `COc1ccc(CNCc2c(F)cccc2F)cc1OC`, with -6.94%. For `C=CCOc1nc2c(c(=O)n(C)c(=O)n2C)n1Cc1cccc(Cl)c1`, the “% Inhibition @ 10 uM” value turned out to be 3.6%. Then `CC(=O)Nc1ccc(-c2cn3cccc(C)c3n2)cc1`, with -11.4%.

In the case of `Cc1ccc(C)c(NC(=O)c2ccc(C(=O)Nc3cc(C)ccc3C)cc2)c1`, the “% Inhibition @ 10 uM” value amounted to 0.526%. Then `CC(C)CC(=O)Nc1nn2c(C(C)C)nnc2s1`, with 1.64%; and `CCOC(=O)N1CCC(NC(=O)c2cccc3c2C(=O)N(Cc2cccnc2)C3)CC1`, with -2.29%. For `Cc1ccc(C)c(Cn2c(N3CCC(C(=O)NCc4ccco4)CC3)nc3ccccc32)c1`, the “% Inhibition @ 10 uM” value was -5.03%. As to `Cc1ccc2oc(=O)c3cnn(CC(=O)NCCc4c[nH]c5ccccc45)c3c2c1`, the “% Inhibition @ 10 uM” value is given as 3.2%. Then `Cc1ccc2c(cnn2C(=O)CCC(=O)NCc2ccco2)c1`, with -2.88%; and `O=C(c1cccc(Cl)c1)N1CCN(c2ncccn2)CC1`, with 0.138%; and `CC12CN3CC(C)(CN(C1)C3(CCC(=O)O)C(=O)O)C2=O` (stereo not shown), with -2.44%. With `Cc1nc2ccccn2c1-c1csc(Nc2ccc(C(=O)O)cc2)n1`, the “% Inhibition @ 10 uM” value is 7.24%. Then `N#CCNC(=O)C(CC1CCCCC1)C(=O)NC1CCCCC1` (stereo not shown), with -0.214%; and `O=C(O)CN1C(=O)S/C(=C\c2cccn2-c2cccc(Br)c2)C1=O`, with -1.6%. As for `CCOc1ccc(/C=N\n2cnnc2)cc1OCC`, the “% Inhibition @ 10 uM” value is on record as 11.9%. In the case of `Cc1cc(C)c2c(n1)sc1c(=O)n(-c3ccccc3)c(=O)[nH]c12`, the “% Inhibition @ 10 uM” value is -1.32%. Regarding `CCCOc1ccc2ccccc2c1/C=C1\SC(=O)NC1=O`, the “% Inhibition @ 10 uM” value was found to be 0.751%.
